In all, about 350,000 compounds went through this assay and about 260 (0.074%) were called active. Inconclusive means that the source gave no clear call. Such entries were picked first, then a sample of the others. The call rests on the fitted dose curve; in most records, active means well fitted inhibition curve with a large enough effect; inconclusive means small, poorly fitted or top-dose-only effect; inactive means no such curve, though single readings can be large or run the other way. Where the call is inconclusive, the potency comes from a doubtful curve fit.
Molecular target: Ferritin light chain (Equus caballus) (UniProt P02791)
Assay: qHTS Assay for Identification of Novel General Anesthetics; further: nearly all actives have a fitted effect of over 20% in size
Details: apoferritin/1-aminoanthracene competitive binding, fluorescence; activity change, negative = displacement: at 77.5 µM (top of the series)
In short: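 Concentration-response curves derived by four-parameter Hill fitting of normalized fluorescence, where compounds displaced 1-AMA from 10 uM horse apoferritin following a brief 10 min room-temperature incubation; propofol titration acted as positive control.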
On the % scale 0 is the no-effect control and ±100 the full control effect; potency means the concentration at half of the fitted maximal effect; tags describe the fitted curve by direction and shape.

UniProt P02791, sequence (P02791 whole entry, looked up): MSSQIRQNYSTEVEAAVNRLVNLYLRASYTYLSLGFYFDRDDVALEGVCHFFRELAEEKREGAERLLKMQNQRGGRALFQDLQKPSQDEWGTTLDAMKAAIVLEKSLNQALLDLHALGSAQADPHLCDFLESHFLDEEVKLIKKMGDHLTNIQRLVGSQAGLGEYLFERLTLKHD

Which Potency does the source give for `O=C(CC(SCc1ccco1)c1ccc(O)cc1)c1cccs1` (configuration not stated) here?
The Potency was inconclusive: 28.2 µM [inhibitor, partial curve].

`CC(C)(C)OC(=O)N1CCC(c2c(C(=O)N3CCc4ccccc4C3)cnn2-c2ccc(F)cc2)CC1` was tested. Which Potency did it give?
The Potency was inconclusive: 35.5 µM [inhibitor, single point].

For `CCCCSc1nnc2[nH]c(=O)cc(N)n12`, which Potency is on record?
The Potency was inconclusive: 56.2 µM [inhibitor, single point].

`CC(C)(Cc1ccc(O)cc1)NC(=O)CC(=O)N=Nc1c(O)[nH]c2ccc(Br)cc12` was tested. Which Potency did it give?
The Potency was inconclusive: 35.5 µM [inhibitor, partial curve].

`CCOC(=O)N1CCc2c(sc3c2c(=O)n(-c2ccc(CC)cc2)c(=O)n3CC(=O)c2ccc(F)cc2)C1` was tested. Which “activity change, negative = displacement” value did it give?
The value was inactive: -19.7%.

Which Potency does the source give for `O=C(c1c(F)cccc1F)N1CCCC(c2nc(-c3ccc(F)cc3)no2)C1` (configuration not stated) here?
Its Potency is inconclusive: 35.5 µM [inhibitor, single point].

With `CC(Oc1ccccc1)C(=O)N=C1SC2CS(=O)(=O)CC2N1Cc1ccccc1` (configuration not stated) as the compound, how does the Potency read?
The Potency was inconclusive: 28.2 µM [inhibitor, single point].

Which “activity change, negative = displacement” value does the source give for `C=C[C@@]1(C)CC(=O)[C@]2(O)[C@@]3(C)[C@H](O)CCC(C)(C)[C@@H]3[C@H](O)[C@H](OC(C)=O)[C@@]2(C)O1` here?
The value was inactive: -0.584%.

How did the Potency turn out when `Clc1ccc(CNc2ccc(N3CCN(Cc4ccccc4)CC3)cc2)cc1` was run?
The Potency was inconclusive: 22.4 µM [inhibitor, partial curve].

For `CCCNC(=O)c1ccc(N2CCC3(CC2)CC(c2ccccc2)=NO3)c([N+](=O)[O-])c1`, which Potency is on record?
The Potency was inconclusive: 15.8 µM [inhibitor, partial curve].

How did the Potency turn out when `COc1ccc(C(=O)OC(C(=O)c2ccc(C)cc2)c2ccccc2)cc1` (configuration not stated) was run?
The Potency was inconclusive: 28.2 µM [inhibitor, partial curve].

How did the “activity change, negative = displacement” value turn out when `CCC(Sc1nncn2c1cc1occc12)C(=O)Nc1ccc(C)c(Cl)c1` (configuration not stated) was run?
The value was inactive: -11.9%.

Which Potency does the source give for `CC(NC(=O)c1cccc(Br)c1)c1ccccc1` (configuration not stated) here?
Its Potency is inconclusive: 35.5 µM [inhibitor, single point].

`O=C(Cn1nc(-c2ccc(Cl)cc2)ccc1=O)NCc1ccccc1Cl` was tested. Which Potency did it give?
Its Potency is inconclusive: 11.2 µM [inhibitor, partial curve].

With `CCn1c(CNc2ccc(Cl)cc2)nnc1SCc1ccc(Cl)cc1` as the compound, how does the Potency read?
The Potency was inconclusive: 56.2 µM [inhibitor, single point].

With `O/N=C/c1ccccc1OCc1ccccc1Cl` as the compound, how does the Potency read?
The Potency was inconclusive: 17.8 µM [inhibitor, partial curve].

Which Potency does the source give for `Cc1ccc(O)c(-c2cc(-c3cccc(F)c3)n[nH]2)c1` here?
Its Potency is inconclusive: 25.1 µM [inhibitor, partial curve].

— PubChem BioAssay AID485281 (National Center for Advancing Translational Sciences (NCATS), 2010)
